Read counts are not given, so values of variants with three or more changes are uncertain.
B1: LINE1-mini (parent)
chain: GGCAGAGCUCAACACAGCGUGGCAAAGUGGCUGUGGCUAGACUGCC

Variants of: B1
Test: self-cleavage, relative activity (ratio to wild type); higher = more cleavage; in vitro, sequencing; the parent is a self-cleaving ribozyme

Row | Variant | self-cleavage
1 | G1U G7U C42A | 0.01
2 | G1U G7U G29U G33C | 0.04
3 | G1U G7U U20C G30U C46A | 0.01
4 | G1U G7U U34C C46U | 0.02
5 | G1U G17A A26C C31G G33C | 0.01
6 | G1U G17A C18G G19C G36U A39U | 0.07
7 | G1U G17A G30U G36U U43C C45G | 0.01
8 | G1U G17U G27U U28G G29U G30A | 0.04
9 | G1U G17U U20G G22A U32G C37U | 0
10 | G1U G19C U20C G30A G36U | 0.05
11 | G1U G19C U32G C46U | 0.68
12 | G1U G19U C45A | 0.02
13 | G1U G21A A26G U32C G40A | 0.02
14 | G1U G21A C23A G29A U43A | 0.03
15 | G1U G21A G27U U28C A39G | 0.05
16 | G1U G21U G22U G40A | 0.05
17 | G1U G21U G44A C46A | 0.16
18 | G1U G21U U32A C46U | 0
19 | G1U G21U U32C | 0.06
20 | G1U G22A A26C | 0.08
21 | G1U G22C C31U G35C C37A A39C A41G | 0
22 | G1U G22C G44U | 0.17
23 | G1U G22C U38A | 0.03
24 | G1U G22U A39U G44A C45U | 0.05

Row | Variant | self-cleavage
25 | G1U G22U U28G G40C | 0.32
26 | G1U G27U U32G C37A C46G | 0.02
27 | G1U G29A C37A C46G | 0
28 | G1U G29A C42G | 0.01
29 | G1U G29U C31A | 0.05
30 | G1U G29U C42A | 0.01
31 | G1U G29U U34C C46U | 0.01
32 | G1U G33C A39G G40U | 0.02
33 | G1U G33C U34A | 0.03
34 | G1U G33U C37U C45U | 0.03
35 | G1U G33U C42U | 0.12
36 | G1U G35A C45U | 0.1
37 | G1U G35U C45A | 0.13
38 | G1U G35U C46U | 0.14
39 | G1U G35U U43G | 0.03
40 | G1U G36U C37U | 0
41 | G1U G36U C42U | 0.12
42 | G1U G44A C45A | 0.02
43 | G1U G44U C45U | 0.03
44 | G1U U9A A14U C15G G21C G27C G35U C37U | 0.01
45 | G1U U9A C15U U32A | 0.02
46 | G1U U9A G22A A24C C45U | 0.01
47 | G1U U9C C13A A16C | 0.01
48 | G1U U9C C23A | 0.02

Row | Variant | self-cleavage
49 | G1U U9C C23U A26U G35C | 0
50 | G1U U9C G17U | 0.02
51 | G1U U9C G35U C37G | 0.02
52 | G1U U9C G36C C42G | 0.01
53 | G1U U9C G36U | 0.03
54 | G1U U9G C13U C18A A26U | 0.01
55 | G1U U9G C23A C31G | 0.05
56 | G1U U9G C23A G30U A41U | 0.03
57 | G1U U9G G27A U43C | 0.03
58 | G1U U20A A24C U43A | 0.02
59 | G1U U20A A25C | 0.08
60 | G1U U20A A25U G30A G36C G40A | 0.02
61 | G1U U20A G21A G35C G36A G40U C42A | 0
62 | G1U U20A G35U C42U | 0.07
63 | G1U U20C A25U U28G G36U U38G | 0.02
64 | G1U U20C C23A A24G U34G A41G G44U C45G | 0.03
65 | G1U U20C C23U G29U | 0.21
66 | G1U U20C U34C | 0.04
67 | G1U U28G C42A G44A | 0.03
68 | G1U U34C G35A C42G | 0.01
69 | G1U U34C G40U | 0.01
70 | G1U U43C C45A | 0
71 | G2A A4C C8A A12C C46U | 0.04
72 | G2A A4C G22U U28C G44A | 0.12

Row | Variant | self-cleavage
73 | G2A A4G A14C U34A | 0.39
74 | G2A A4G A26C | 0.5
75 | G2A A4G C8A U20G | 0.04
76 | G2A A4G C13A G17U U34A G36A | 0.5
77 | G2A A4G C23A G40A | 0.13
78 | G2A A4G C31U A39C G40C | 0.1
79 | G2A A4G G7A G21U G27U G33C C37G | 0.12
80 | G2A A4G G17C A24C G29C G30C G35C G44A | 0.01
81 | G2A A4U A6C C37U U43A | 0.27
82 | G2A A4U A6U | 0.37
83 | G2A A4U C8G U43A | 0.02
84 | G2A A4U C10A | 0.09
85 | G2A A4U C10A G21C G30U C46G | 0.06
86 | G2A A4U C13A C18G G19U G29U C37A G44A | 0.14
87 | G2A A4U G5C | 0.14
88 | G2A A4U G17A G21C A39G G44C | 0
89 | G2A A4U G19U G29C U34C | 0.15
90 | G2A A4U U9C U28G G29U C31U | 0.03
91 | G2A A4U U20C C31U | 0.19
92 | G2A A6C C10U C13G G36C C46A | 0.03
93 | G2A A6C C23G | 0.13
94 | G2A A6C C37U | 0
95 | G2A A6C G19C C46G | 0.17
96 | G2A A6C U38G | 0.03

Row | Variant | self-cleavage
97 | G2A A6G C15G A16U U20G A24C U38C A41U C46G | 0.01
98 | G2A A6G C31G G33C C37U U38C | 0.01
99 | G2A A6G G33U A39G C42G | 0.01
100 | G2A A6G U28C G33A | 0.05
101 | G2A A6U C37A U43C | 0.44
102 | G2A A6U G17C A24U A25G G27C G36C C46U | 0.07
103 | G2A A6U G19C | 0.36
104 | G2A A11C G40A | 0.03
105 | G2A A11C G44C C45U | 0.01
106 | G2A A11G A14C G29U | 0.01
107 | G2A A11G C18U A25C | 0.01
108 | G2A A11G C37A | 0.02
109 | G2A A11G G30A | 0.05
110 | G2A A11G G40U | 0.17
111 | G2A A11U A14U C15A U34A C42U C46U | 0.01
112 | G2A A11U A16U G30A A39U | 0.03
113 | G2A A11U A24U G27A G29A C31A | 0.01
114 | G2A A11U C31G U38C | 0.02
115 | G2A A11U G19A A39G | 0.03
116 | G2A A12C A41C | 0.04
117 | G2A A12C C23U G33U C42U | 0.03
118 | G2A A12C U20A A41U C45U | 0.01
119 | G2A A12C U28G | 0.03
120 | G2A A12C U32C A41U G44U | 0.02

Row | Variant | self-cleavage
121 | G2A A12G A14G G33A | 0.15
122 | G2A A12G A16G G17U A39C | 0.01
123 | G2A A12G A39C | 0.11
124 | G2A A12G C23G | 0.08
125 | G2A A12G G29A G36C | 0.08
126 | G2A A12U G21A G35U | 1.52
127 | G2A A12U G36U U38A G40C | 0.02
128 | G2A A14C A24G | 0.12
129 | G2A A14C A25C | 0.03
130 | G2A A14C A39G | 0.04
131 | G2A A14C G33U | 0.04
132 | G2A A14G A25U | 0.31
133 | G2A A14G A39U G40U | 0.08
134 | G2A A14G C15A A41G | 0.16
135 | G2A A14G C31A C45U | 0.11
136 | G2A A14G U32G U38A | 0.04
137 | G2A A14U C18U G30A C31A G36A | 0.42
138 | G2A A14U C45A | 0.08
139 | G2A A14U G17A | 0.06
140 | G2A A14U G17U G21A G33C | 0.05
141 | G2A A14U G19A C23A C31U U38G | 0.01
142 | G2A A14U G21U A25U G40U A41G | 0.37
143 | G2A A16G A26C U38G C46U | 0.04
144 | G2A A16U A24U G27C | 0.04

Row | Variant | self-cleavage
145 | G2A A16U C18G G36C | 0.01
146 | G2A A16U C31U | 0.08
147 | G2A A16U G27A | 0.06
148 | G2A A16U G27U | 0.12
149 | G2A A16U U34C C45G | 0.39
150 | G2A A24C G30A G40C | 0.02
151 | G2A A24U A25U U32G | 0.16
152 | G2A A24U C42U | 0.29
153 | G2A A24U G27C | 0.13
154 | G2A A24U G44C | 0.55
155 | G2A A25C G40A C42U U43G | 0.12
156 | G2A A25C G40U | 0.15
157 | G2A A25U G27A C31G | 0.07
158 | G2A A25U G44U | 0.48
159 | G2A A26G G27U U28G | 1.32
160 | G2A A26G U43G | 0.06
161 | G2A A26U A41U U43C | 0.04
162 | G2A A26U G35A | 0.02
163 | G2A A26U G35U | 0.4
164 | G2A A41U C46U | 0.31
165 | G2A C3A A6G | 2.7
166 | G2A C3A C10G G17A C31G C46U | 0.06
167 | G2A C3A C31A C46G | 0.44

Source: the RNAGym collection of RNA variant scans (doi:10.7554/elife.90254)
